Over roughly 33,000 sequences, “E-score (-0.5 to 0.5)” has its median near -0.011; the highest 2% begin near 0.28. The list shows a part of the results.
These sequences were tested against T1, Gcr1 (UniProt P07261) (assay: PBM E-score (8-mer binding enrichment) (E-score (-0.5 to 0.5)); higher = stronger / more preferred TF binding; most listed sequences are background and not binding sites). Conditions: protein concentration: 100 nM; construct: GST-full length.
T1 sequence: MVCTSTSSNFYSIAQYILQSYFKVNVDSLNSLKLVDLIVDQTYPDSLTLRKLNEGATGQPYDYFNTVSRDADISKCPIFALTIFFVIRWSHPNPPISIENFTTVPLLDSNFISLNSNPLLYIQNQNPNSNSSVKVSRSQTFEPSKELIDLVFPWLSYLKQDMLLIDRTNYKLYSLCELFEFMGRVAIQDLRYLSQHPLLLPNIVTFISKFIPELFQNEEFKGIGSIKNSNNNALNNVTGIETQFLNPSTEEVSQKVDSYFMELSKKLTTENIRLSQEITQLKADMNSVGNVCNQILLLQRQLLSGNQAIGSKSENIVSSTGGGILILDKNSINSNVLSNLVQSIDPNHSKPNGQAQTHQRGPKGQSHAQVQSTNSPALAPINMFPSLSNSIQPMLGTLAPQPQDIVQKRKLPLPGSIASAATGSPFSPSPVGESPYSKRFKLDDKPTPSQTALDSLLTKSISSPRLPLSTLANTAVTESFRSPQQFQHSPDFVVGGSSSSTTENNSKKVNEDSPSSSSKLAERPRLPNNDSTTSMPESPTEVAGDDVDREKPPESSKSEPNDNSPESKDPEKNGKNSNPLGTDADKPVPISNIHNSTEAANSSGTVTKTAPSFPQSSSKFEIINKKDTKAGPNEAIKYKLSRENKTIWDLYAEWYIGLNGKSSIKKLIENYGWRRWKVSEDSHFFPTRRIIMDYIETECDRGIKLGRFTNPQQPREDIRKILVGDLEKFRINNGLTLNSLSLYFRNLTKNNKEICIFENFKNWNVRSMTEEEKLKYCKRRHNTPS
Outline: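 Yeast transcription factors carrying a GST tag, as full-length proteins or DNA-binding domains, were produced by PURExpress in vitro transcription/translation. About 100-200 nM protein was applied to universal all-10-mer Agilent arrays, double-stranded by primer extension on fresh or once-stripped slides. Bound protein was detected with fluorescent anti-GST, and scans were normalised with masliner. The Universal PBM Analysis Suite gave each ungapped eight-base word, pooled with its reverse complement, an E-score, a modified Wilcoxon-Mann-Whitney statistic.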

| Sequence | PBM E-score |
| --- | --- |
| AGAAAATA | 0.0226 |
| GAATTCCA | 0.369 |
| AAATCTTC | 0.0977 |
| GATAGAAA | 0.0681 |
| TCCCAGGA | 0.0364 |
| ACCTGCCT | -0.218 |
| ATACGGAA | 0.221 |
| CTAGATAG | 0.131 |
| AGTCACGC | -0.118 |
| CCGATCGA | -0.0301 |
| TGGCCCCA | 0.0932 |
| AGAGAACC | 0.0209 |
| ACTTGGGC | -0.117 |
| CCTAAGAG | 0.0504 |
| TCGAAACA | 0.0146 |
| CTTCCAGC | 0.123 |
| TCCGTCGA | -0.0994 |
| GTCATCGA | -0.118 |
| CTCCTCAG | -0.111 |
| GCGGGCAC | 0.277 |
| CAGGGGCC | 0.0162 |
| ACTCGAGA | -0.0317 |
| GCCCTTAC | -0.0542 |
| ACCACCAG | 0.166 |
| CTATAAGA | 0.115 |

| Sequence | PBM E-score |
| --- | --- |
| AGGTTACG | -0.144 |
| CTTGTAAC | 0.142 |
| CTCGAGTA | 0.164 |
| AGCTTTTC | -0.206 |
| AGAGGTCG | 0.0297 |
| CGGAGGTA | -0.0814 |
| ATGCTTTA | -0.0458 |
| TCCTGCGA | -0.121 |
| GGCGCGCA | 0.171 |
| CTGACATC | 0.147 |
| ATTTCAGC | -0.0316 |
| TAATTCGA | -0.0807 |
| ATACTTAA | 0.161 |
| AATGCAAC | -0.0227 |
| CTTTTGGC | -0.187 |
| TACGAGGA | 0.0036 |
| AATACTTA | 0.0503 |
| ACATTAGT | -0.0355 |
| GTAAGCAA | -0.13 |
| CCGCAGTA | -0.198 |
| ACCTGGGA | 0.0304 |
| CAGTTTAA | 0.15 |
| GAGGTACC | 0.0768 |
| AAGTGGTC | 0.0307 |
| CTGCCATC | 0.087 |

| Sequence | PBM E-score |
| --- | --- |
| AAATTATG | 0.0598 |
| CATGTCCC | -0.135 |
| CGCATCTA | 0.204 |
| CGACACCC | -0.0352 |
| AGAAGTAA | -0.0438 |
| ATTCTGTA | 0.0504 |
| ACCCGCTA | 0.221 |
| ATTGACGG | -0.0123 |
| CGGTAGAA | -0.165 |
| CGGATTGA | -0.116 |
| AACGTGAC | -0.138 |
| GATCAGCC | -0.0369 |
| TGCAATAA | 0.176 |
| CCGTTAAG | -0.0864 |
| AATCAGTG | -0.0232 |
| AGCAAAAC | -0.0711 |
| AATGATGC | 0.127 |
| AGCGGATC | -0.0271 |
| AGTTTGGG | 0.0924 |
| GTCCAGAC | -0.129 |
| AGCTATCA | 0.0321 |
| AGCAACAC | -0.155 |
| GGTCCACC | -0.203 |
| CAGGGTAG | -0.298 |
| AGTCTACG | -0.0187 |

| Sequence | PBM E-score |
| --- | --- |
| CCGGGCTA | -0.0612 |
| CTAGTCAC | -0.0102 |
| GTAAGCAC | -0.0366 |
| TACAAGAA | 0.379 |
| GTAGGGTA | 0.0186 |
| AACGGTAA | -0.104 |
| ACTCCCGA | -0.132 |
| GAAAGAAA | -0.00222 |
| CAGTGACC | -0.0348 |
| CCTGCAAA | -0.0849 |
| GCTACTGA | 0.134 |
| AGATTTAA | -0.051 |
| AAGGTAGA | -0.0145 |
| AACTACCC | -0.0549 |
| ATACGTGC | -0.162 |
| CTGCCCAA | -0.0694 |
| CACAGGTG | 0.0843 |
| GTTGACAA | 0.0264 |
| CCGCACAA | -0.228 |
| ATGCACCG | 0.0335 |
| AAAGAATT | 0.0694 |
| CTCGAATA | -0.0395 |
| GAGTTGCA | -0.0956 |
| AATCGTAG | -0.0634 |
| CGTCCCAC | 0.0816 |

| Sequence | PBM E-score |
| --- | --- |
| CTAAGGCA | -0.136 |
| ACACGCGC | -0.0262 |
| GACACGAC | -0.00308 |
| CCTAGCAA | 0.0796 |
| TGGTTCAA | -0.11 |
| CCTCGCTC | -0.0356 |
| ACGTGACT | -0.226 |
| CAATAGCC | -0.237 |
| CTAGGAGC | 0.181 |
| AATCGACT | -0.0728 |
| GATTCATA | -0.0102 |
| CAAAGAGG | -0.0776 |
| GAGGTGGC | -0.189 |
| ACTATAAG | 0.00633 |
| GGTAGAAC | -0.245 |
| GCCCCCAA | 0.193 |
| ACATTGGT | 0.0429 |
| AGCTGTAG | 0.0786 |
| ATGTGGGG | -0.0217 |
| CGACCGCA | -0.027 |
| AATGACTA | -0.197 |
| AAGATGAT | 0.0175 |
| GTGCTAAC | 0.129 |
| AATTTACC | 0.0413 |
| CGCTGACA | 0.153 |

| Sequence | PBM E-score |
| --- | --- |
| GGCTTGCA | -0.142 |
| AGCCGAAA | 0.183 |
| CTCCCGTA | 0.0078 |
| TGGATTAA | 0.0316 |
| ACGGACCA | -0.0842 |
| ACAATGCT | -0.136 |
| CTGACACC | 0.115 |
| CAGGAAGA | 0.0842 |
| ACGTCTGA | -0.162 |
| ACATAGAG | -0.106 |
| AGTCCGGC | -0.156 |
| GAACTGAA | 0.0692 |
| TAAGGACA | -0.115 |
| GCACTTAC | -0.111 |
| CGTGCCTC | -0.135 |
| CTCCTATA | 0.0592 |
| ATCATATA | 0.18 |
| CCACAATC | 0.156 |
| GTATTAGA | 0.158 |
| GCGGAGCC | 0.0363 |
| TGCAACAA | -0.192 |
| GGCTCACC | -0.139 |
| ATCGGGCA | -0.143 |
| CGGTGGTC | -0.112 |
| AGCCAGGA | -0.196 |

| Sequence | PBM E-score |
| --- | --- |
| ACATTCAT | -0.0523 |
| ACCAGCAG | 0.11 |
| CACTCTAC | 0.0796 |
| TCAAACCA | 0.0818 |
| GCTCAAAA | 0.176 |
| AATTCAAG | -0.0134 |
| ACTTGGGA | -0.0199 |
| GTCGACTA | -0.132 |
| CTTGCTCC | -0.0003 |
| GGTTCTAC | -0.0583 |
| CTCTATCC | -0.172 |
| ATACCACC | 0.149 |
| CATGCTAG | -0.193 |
| CATATGTC | -0.143 |
| ATAAGATG | 0.243 |
| CATGCTGC | -0.074 |
| CTGATAGA | 0.145 |
| GATTGATA | -0.0521 |
| AGATTCGA | 0.00089 |
| AAAGACCT | -0.0113 |
| AGTAGCCA | 0.0595 |
| ATTTTCTC | -0.0311 |

Reference: the supplement of paper PMC3334620
